We go through 70 compounds from PubChem BioAssay AID1347073 (National Center for Advancing Translational Sciences (NCATS), 2019).

Among all 45,000 compounds or so, about 200 (0.44%) were called active. Roughly 7% stayed inconclusive and do not appear here. The call rests on the fitted dose curve; in most records, active means well fitted activation curve with a large enough effect; inconclusive means small, poorly fitted or top-dose-only effect; inactive means no such curve, though single readings can be large or run the other way. The list shows a part of the results.

The nature of this assay: qHTS of TDP-43 Inhibitors: NCGC Sytravon Library Screen. Further: 0% is about no effect; nearly all actives have a fitted effect of over 55% in size. The note with it: yeast TDP-43 toxicity rescue, BacTiter-Glo growth, 24 h; series mostly up to 46.1 µM; growth rescue (activation): at the top concentration. In a few lines: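 TDP-43-expressing yeast, pregrown in raffinose, seeded at OD600 0.02 in galactose medium with compound for 24 hr at 30 deg C. Growth read by BacTiter-Glo luminescence, so rescue of toxicity appears as activation.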
`CCN(CC)C(=O)CSc1nc(N)c(C(=O)Nc2ccc(OC)cc2)s1`: the “growth rescue (activation)” value is inactive: 22.8%.
Turning to `CCCCOCCCNC(=O)N[C@H](C(=O)O)C(C)CC` (stereo not given in full), the “growth rescue (activation)” value is inactive: 1.86%.
For `CSCCNCc1c(C(=O)N2CCOCC2)nc2c(C)cccn12` the value was inactive: -6.07%; for `c1ccc2c(c1)nc(N1CCCCCC1)c1ccccc12`, inactive: -22.2%.
Turning to `COc1ccc(-c2ccc3nncn3c2)cn1`, the “growth rescue (activation)” value was inactive: -9.9%.
For the compound `Cc1ccnc(Nc2nc(-c3ccc(Cl)cc3)cs2)c1`, the “growth rescue (activation)” value is inactive: 15%.
For `COc1ccc(NC(=O)c2cc(C3CCCCN3S(=O)(=O)c3ccc(C#N)cc3)on2)c(C)c1` (stereo not given) the value was inactive: 16%.
`COc1ccc(C/C(N)=N/OC(=O)CCc2ccccc2)cc1`: the “growth rescue (activation)” value is inactive: -35.3%.
For `Cc1ccc(S(=O)(=O)NC2CCCCC2)c(C)c1NS(C)(=O)=O` the value was inactive: -46.5%; for `O=C1N(c2cccc(Cl)c2)C(c2ccccc2)N2CCCN12` (stereo not given), inactive: 7.3%; for `CCC(=O)Nc1cc(-c2nn(C)c(=O)c3ccccc23)ccc1N1CCOCC1`, inactive: 12.1%.
For `CNC(=O)c1ccc(=O)n(Cc2cccc(C(F)(F)F)c2)c1`, the “growth rescue (activation)” value is inactive: 1.41%.
For `CC(C)(C)c1cc(C(=O)C[n+]2ccc(C(=O)NCCCO)cc2)cc(C(C)(C)C)c1O` the value was inactive: 30.9%; for `COc1cccc(OC)c1NC(=O)CN1CCN(C)CC1`, inactive: -13.6%.
As for `CC(C)Cc1nnc(NC(=O)CCNC(=O)c2ccco2)s1`, the figure is inactive: 8.56%.
As for `CC(C)[C@H](NS(=O)(=O)c1ccc2c(c1)OCCO2)C(=O)OCC(=O)Nc1cc(Cl)ccc1Cl`, the figure is inactive: 9.25%; as for `CCOc1cc(/C=C/C(=O)Nc2ccc(C(=O)NCCN(CC)CC)cc2)ccc1OCC(C)C`, inactive: 15.2%.
`CCCc1ccc(C(O)c2ncc(-c3ccc(C)cc3)[nH]2)cc1` (stereo not given): the “growth rescue (activation)” value was inactive: 12.9%.
As for `COCCN(CCOC)C(=S)Nc1cc(S(=O)(=O)N(C)C)ccc1C`, the figure is inactive: 6.28%.
As for `NS(=O)(=O)c1ccc(NC(=S)N2CCN(c3cccc(Cl)c3)CC2)cc1`, the figure is inactive: 19%; as for `C[C@@H]1CCCCCCCCCCC1=O`, inactive: -0.811%.
As for `CCCCn1c(N)c(N(CC)C(=O)c2c(C)noc2C)c(=O)[nH]c1=O`, the figure is inactive: -6.05%.
For `COc1ccc(NC(=O)c2oc3ccc(S(=O)(=O)N4CCOCC4)cc3c2C)cc1`, the “growth rescue (activation)” value was inactive: 13.7%.
For `CN(CCOc1ccc(Cl)cc1)CC(O)c1ccccc1` (stereo not given) the value was inactive: 4.2%.
For the compound `COc1cccc(NC(=O)CN(C)S(=O)(=O)c2ccc3nc(C)sc3c2)c1`, the “growth rescue (activation)” value is inactive: -1.05%.
With `O=S(=O)(NC1CCCCC1N1CCOCC1)c1ccc(Cl)cc1` (stereo not given), the “growth rescue (activation)” value was inactive: -12.6%.
As for `COc1ccc(OC)c(CN2CCCC(C(=O)c3ccccc3SC)C2)c1` (stereo not given), the figure is inactive: 7.78%; as for `O=C(O)C(Cc1ccccc1)N1C(=O)C2CCCCC2C1=O` (stereo not given), inactive: -1.42%.
Take `O=C(CNC(=O)c1ccc(Cl)cc1Cl)OCc1cn2cc(Br)ccc2n1`: the “growth rescue (activation)” value is inactive: 22.2%.
On to `Cc1cc(C)cc(-n2c(C)cc(/C=N/NC(=O)c3ccncc3)c2C)c1`, for which the “growth rescue (activation)” value is inactive: 18.4%.
For `Cc1ccc(NC(=O)C2CCN(C(=O)c3cccs3)CC2)cc1` the value was inactive: 6.31%; for `CC(C)NC(=O)COC(=O)c1ccc(S(=O)(=O)N2CCCC2)cc1`, inactive: 5.3%.
Take `COc1cccc(NC(=O)C2(C)CCCN2C(=O)C(C)C)c1OC` (stereo not given): the “growth rescue (activation)” value is inactive: -4.72%.
With `O=C(OCC(=O)N1CCOCC1)c1ccc(O)cc1`, the “growth rescue (activation)” value was inactive: 4.6%.
For `Cc1ccc(Sc2ncccc2C(=O)NC2CCCCCC2)cc1C` the value was inactive: 7.43%.
As for `CCN(CC)S(=O)(=O)c1ccc(N2CCOCC2)c(NC(=O)c2cccc(C#N)c2)c1`, the figure is inactive: -3.92%.
Take `CCOc1ccccc1NC(=O)c1c(NC(=O)c2ccccc2C)sc2c1CCC(C)C2` (stereo not given): the “growth rescue (activation)” value was inactive: 2.66%.
For `CCOC(=O)c1ccc(S(=O)(=O)NNC(=O)COc2ccc(C)cc2)cc1` the value was inactive: 11.9%.
On to `CC(NC(=O)CSc1ncccn1)c1ccc2c(c1)OCO2` (stereo not given), for which the “growth rescue (activation)” value is inactive: 21.5%.
As for `Cc1c(Cl)cccc1NC(=O)CSc1nncn1-c1ccccn1`, the figure is inactive: 12.2%; as for `Cc1ccc(C(=O)N(Cc2ccc(N(C)C)cc2)Cc2ccco2)cc1`, inactive: 5.75%; as for `CCN1CCN(C(=O)Cn2nc(-c3ccc(Cl)cc3)ccc2=O)CC1`, inactive: -26.8%.
For `COc1ccccc1/C=C1\SC(=S)N(N2C(=O)CCCC2=O)C1=O` the value was inactive: 7.03%.
With `COc1ccc(C2Nc3ccccc3C(=O)N2Cc2ccco2)cc1CN1C(=O)c2ccccc2C1=O` (stereo not given), the “growth rescue (activation)” value was inactive: 9.35%.
Turning to `O=C(Nc1ccc(N2CCOCC2)cc1)c1cccc(S(=O)(=O)N2CCCCC2)c1`, the “growth rescue (activation)” value is inactive: 25.7%.
For `COc1nc(-c2ccccc2)ncc1S(=O)(=O)c1ccccc1` the value was inactive: 1.31%; for `O=C(Nc1cccc(F)c1)Nc1ccc2c(c1)C(=O)OC2`, inactive: 10.1%.
For `COc1ccc(NC(=O)c2cc3c(CO)cnc(C)c3oc2=Nc2cccc(C)c2)c(OC)c1` the value was inactive: -0.806%; for `CS(=O)(=O)N(CC(=O)N1CCCCC1)Cc1ccccc1`, inactive: -13.5%; for `CCOC(=O)c1c(C)[nH]c(C(=O)N/N=C/c2cc([N+](=O)[O-])ccc2O)c1C`, inactive: -2.77%.
`COc1ccc(/C=C/c2nnc(NC(=O)COc3cccc(C)c3)s2)cc1`: the “growth rescue (activation)” value was inactive: -29.7%.
For `CC(C)(C)SCCNC(=O)CN(c1ccccc1)S(=O)(=O)c1ccccc1` the value was inactive: 14.8%.
For `CCN1CCCC1CNC(=O)CN(C)S(=O)(=O)c1ccc(Cl)cc1` (stereo not given) the value was inactive: -3.46%; for `COc1ccccc1CNC(=O)N1CCN(c2ccccc2Cl)CC1`, inactive: 4.67%; for `Cc1cccc2cncc(OCc3nnc(SC(F)F)n3C)c12`, inactive: -18.8%.
Regarding `O=S(=O)(c1cccs1)N1CCN(c2ccccc2Cl)CC1`, the “growth rescue (activation)” value is inactive: -26%.
Turning to `CCCc1cc(=O)[nH]c(SCc2nc3ccccc3o2)n1`, the “growth rescue (activation)” value was inactive: 18.7%.
In the case of `COc1cccc(NC(=O)c2ccc(NC(=O)C(C)(C)C)cc2)c1`, the “growth rescue (activation)” value is inactive: -6.6%.
Consider `Cc1cc(F)ccc1S(=O)(=O)N(CC(=O)N1CCOCC1)CC(=O)N1CCOCC1`, for which the “growth rescue (activation)” value was inactive: -3.77%.
As for `Cc1cc(Cn2nnnc2-c2ccncc2)cc(C)c1O`, the figure is inactive: -3.61%; as for `CNc1ccc(C(=O)OCC(=O)NC(=O)NC2CCCCC2)cc1[N+](=O)[O-]`, inactive: 2.21%.
Consider `CC1(C(=O)Nc2ccc3c(c2)OCCO3)CCN1C(=O)CC1CCCC1` (stereo not given), for which the “growth rescue (activation)” value was inactive: 23%.
`Cc1ccc(NC(=O)c2c(C)nc3ccccn23)cc1C`: the “growth rescue (activation)” value is inactive: 4.58%.
As to `COc1cc(C(=O)NCCN=C2NS(=O)(=O)c3ccccc32)cc(OC)c1OC`, the “growth rescue (activation)” value is inactive: -6.79%.
In the case of `CCOC(=O)c1ccc(NC(=S)NC(=O)c2cncc(Br)c2)cc1`, the “growth rescue (activation)” value is inactive: -20.7%.
For `Cc1nc(Cl)c(S(N)(=O)=O)c(C)c1Cl` the value was inactive: 17.9%; for `Cc1ccc(S(=O)(=O)c2cc3c(=O)n4cccc(C)c4nc3n(CC3CCCO3)c2=N)cc1C` (stereo not given), inactive: -5.56%; for `CCN(CC)CCNC(=O)c1ccc(Cn2c(=O)c3cccn3c3cccnc32)cc1`, inactive: 2.4%.
Regarding `CC(C)N1CCN(C2CSCCSC2)CC1CCO` (stereo not given), the “growth rescue (activation)” value is inactive: -10.3%.
As to `NC(=O)c1ccsc1NC(=O)COC(=O)/C=C/c1ccccc1[N+](=O)[O-]`, the “growth rescue (activation)” value was inactive: 0.7%.
